The list shows a part of the results. Sequences were assembled here from the parent chain. Inactive controls read about 0.05.
B1: TEV protease; numbered along this chain (parent)
chain: MGESLFKGPRDYNPISSSICHLTNESDGHTTSLYGIGFGPFIITNKHLFRRNNGTLVVQSLHGVFKVKDTTTLQQHLVDGRDMIIIRMPKDFPPFPQKLKFREPQREERICLVTTNFQTKSMSSMVSDTSCTFPSGDGIFWKHWIQTKDGQCGSPLVSTRDGFIVGIHSASNFTNTNNYFTSVPKNFMELLTNQEAQQWVSGWRLNADSVLWGGHKVFMVKPEEPFQPVKEATQL

Variants of: B1
Test: raw area under fraction-flipped curve 0-4 h after induction (AUC4h, not background-subtracted), DNA-recorder readout of cleavage of the substrate (dimensionless); higher = more cleavage of the substrate by the protease variant
Conditions: temperature: 34 °C; time window: 0-4 h after rhamnose induction
Description: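 In vivo DNA recorder in E. coli TOP10(DE3) ΔrhaA at 34 °C. Each TEVp single-site mutant (parent TEVp 0) is paired with a single-site variant of the 7-mer TEVs (canonical ENLYFQ|S). The substrate sits between flexible linkers in a Bxb1-sfGFP-TEVs-SsrA fusion, so cleavage stabilises Bxb1 and speeds flipping of a recombination array, read by NGS. The value is the raw area under the fraction-flipped curve over 0-4 h after rhamnose induction (AUC4h), with ≥20 reads per time point. It is not background-subtracted; inactive controls average about 0.047.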
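Note: Bxb1 expression induced with 0.2% (w/v) L-rhamnose at OD600 near 0.5, cultures sampled hourly, flipped fraction per protease–substrate barcode pair counted by paired-end Illumina sequencing.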

| Variant | area with substrate CNLYFQS | area with substrate GNLYFQS | area with substrate HNLYFQS | area with substrate INLYFQS | area with substrate SNLYFQS | area with substrate WNLYFQS | area with substrate FNLYFQS | area with substrate KNLYFQS | area with substrate LNLYFQS | area with substrate MNLYFQS | area with substrate PNLYFQS | area with substrate QNLYFQS | area with substrate TNLYFQS | area with substrate YNLYFQS | area with substrate NNLYFQS | area with substrate RNLYFQS | area with substrate VNLYFQS |
| --- | --- | --- | --- | --- | --- | --- | --- | --- | --- | --- | --- | --- | --- | --- | --- | --- | --- |
| W203M | 0.0493 | 0.0795 | 0.0593 | 0.0541 | 0.0485 | 0.0548 |  |  |  |  |  |  |  |  |  |  |  |
| R81S | 0.0548 | 0.0603 | 0.0618 |  | 0.0572 | 0.0746 | 0.0615 | 0.071 | 0.0582 | 0.0645 | 0.0603 | 0.0596 | 0.0617 | 0.0653 |  |  |  |
| R81Y | 0.0599 |  | 0.0642 | 0.0622 | 0.0646 | 0.0602 | 0.0659 | 0.0644 | 0.0661 | 0.0877 |  |  | 0.0643 | 0.061 | 0.0613 | 0.0486 |  |
| S127W | 0.0593 | 0.0882 | 0.0539 | 0.0636 |  | 0.0417 | 0.0884 | 0.0736 | 0.0752 | 0.0533 |  |  |  | 0.0572 | 0.0867 |  | 0.0476 |
| K221G | 0.062 | 0.0769 | 0.0464 |  | 0.0608 | 0.0575 | 0.0616 | 0.0561 | 0.0654 | 0.0655 |  |  | 0.05 | 0.0658 | 0.0696 |  |  |
| R10F | 0.0536 | 0.0728 | 0.0675 |  |  | 0.0628 | 0.0725 | 0.0653 | 0.0821 | 0.077 | 0.066 |  | 0.0609 | 0.0794 |  |  | 0.0586 |
| I36K | 0.0345 |  |  | 0.0275 |  | 0.0374 | 0.0488 | 0.0456 | 0.0521 |  |  |  |  |  | 0.0322 |  |  |
| L5W | 0.0717 | 0.104 | 0.0639 | 0.0505 | 0.067 | 0.0674 |  |  |  | 0.0712 | 0.0637 |  |  | 0.0659 |  |  |  |
| L5N | 0.0685 | 0.0904 | 0.0562 | 0.0558 |  | 0.0435 |  |  | 0.0779 | 0.0792 |  |  | 0.0691 |  | 0.0698 |  |  |
| L5C | 0.0821 |  |  | 0.072 | 0.076 |  |  |  | 0.0683 |  | 0.072 | 0.0561 |  | 0.0483 |  |  |  |
| L73K | 0.0404 | 0.0415 |  |  |  | 0.0576 | 0.0501 |  |  | 0.0423 |  | 0.0618 |  | 0.0573 | 0.0488 | 0.0638 |  |
| G2C | 0.0802 |  | 0.0752 |  |  |  |  |  |  |  | 0.0776 |  | 0.0696 | 0.0799 |  |  |  |
| I84R | 0.0478 | 0.0411 | 0.0626 | 0.0461 | 0.0574 |  |  | 0.0526 | 0.065 | 0.0407 | 0.0557 |  |  |  |  | 0.0453 |  |
| D11C | 0.0669 | 0.0705 | 0.0619 | 0.0608 | 0.0702 | 0.0666 | 0.0488 | 0.0793 | 0.0692 |  | 0.0625 |  | 0.0654 | 0.056 |  |  |  |
| T71K | 0.0732 |  |  |  |  | 0.0617 | 0.0654 |  |  |  | 0.0337 |  |  |  |  |  |  |
| T71N | 0.0625 |  | 0.0539 | 0.0727 |  | 0.0439 | 0.0852 |  |  |  |  | 0.0625 | 0.0579 | 0.0552 | 0.0679 | 0.101 | 0.0646 |
| L211R | 0.0566 |  |  | 0.0746 |  |  |  | 0.0721 | 0.0192 |  |  |  | 0.0437 |  |  |  |  |
| F117A | 0.11 |  | 0.1 |  | 0.0663 | 0.0599 |  |  |  | 0.0722 |  |  |  |  | 0.0511 |  | 0.0498 |
| D69Y | 0.102 | 0.0603 | 0.056 |  | 0.0665 |  |  |  | 0.0698 | 0.054 |  |  | 0.0589 |  |  |  | 0.066 |
| V217Y | 0.0624 |  | 0.0722 | 0.0632 |  |  |  |  | 0.0589 | 0.0464 | 0.0594 |  | 0.0568 | 0.0568 | 0.0725 |  |  |

| Variant | area with substrate CNLYFQS | area with substrate GNLYFQS | area with substrate HNLYFQS | area with substrate INLYFQS | area with substrate SNLYFQS | area with substrate WNLYFQS | area with substrate FNLYFQS | area with substrate KNLYFQS | area with substrate LNLYFQS | area with substrate MNLYFQS | area with substrate PNLYFQS | area with substrate QNLYFQS | area with substrate TNLYFQS | area with substrate YNLYFQS | area with substrate NNLYFQS | area with substrate RNLYFQS | area with substrate VNLYFQS |
| --- | --- | --- | --- | --- | --- | --- | --- | --- | --- | --- | --- | --- | --- | --- | --- | --- | --- |
| G37H | 0.058 |  | 0.053 |  | 0.0763 | 0.0583 |  | 0.0481 |  |  |  |  |  |  | 0.0603 |  |  |
| S154T | 0.0695 | 0.0755 |  |  |  | 0.0501 | 0.0644 |  |  |  |  |  | 0.081 | 0.0888 | 0.0732 |  | 0.053 |
| H62L | 0.0417 |  |  |  |  |  | 0.0629 | 0.0726 | 0.0566 | 0.0654 |  |  | 0.0605 | 0.0569 | 0.0438 |  |  |
| F173N | 0.0628 |  | 0.0724 |  |  |  | 0.0553 |  |  |  |  | 0.0416 | 0.0649 |  |  | 0.0743 |  |
| K120S | 0.0647 | 0.0588 | 0.0555 |  | 0.0565 | 0.0622 |  | 0.0672 | 0.0622 |  | 0.0701 |  | 0.0585 |  | 0.0788 |  |  |
| V165Y | 0.0487 | 0.0565 | 0.0495 |  | 0.0562 | 0.0514 | 0.047 |  | 0.0817 | 0.0372 | 0.0349 | 0.0485 | 0.0578 |  | 0.0665 |  | 0.0526 |
| N177D | 0.076 |  | 0.0877 |  | 0.0679 | 0.0642 |  | 0.0417 | 0.073 |  |  |  | 0.0791 | 0.041 | 0.0664 |  | 0.0751 |
| S124N | 0.0282 |  | 0.0691 |  |  | 0.0609 | 0.0731 |  | 0.0701 |  | 0.056 |  | 0.055 |  |  |  | 0.09 |
| R106M | 0.0543 |  | 0.0741 |  | 0.0756 | 0.0675 |  | 0.0672 |  |  |  |  |  |  |  |  |  |
| T55A | 0.0557 |  |  | 0.0601 | 0.0517 | 0.0495 | 0.0682 |  | 0.0692 | 0.0746 | 0.0739 |  | 0.0469 | 0.0584 |  |  | 0.0263 |
| T159N | 0.074 |  | 0.0754 | 0.0789 |  | 0.0624 |  |  |  | 0.0694 | 0.1 |  | 0.07 | 0.0577 |  |  |  |
| F6S | 0.0745 |  | 0.061 |  |  | 0.0508 | 0.0639 |  |  |  |  |  | 0.0675 | 0.0806 |  |  | 0.0726 |
| F226T | 0.0422 |  | 0.0545 |  |  | 0.0546 |  | 0.0714 |  |  |  |  |  |  |  |  |  |
| P225G | 0.0777 |  | 0.0604 | 0.0604 | 0.0746 | 0.0587 | 0.0563 |  | 0.0682 |  |  | 0.0591 |  |  | 0.082 |  |  |
| P225H | 0.0725 |  | 0.0555 | 0.066 | 0.0841 | 0.0607 | 0.0525 |  | 0.0756 | 0.0551 |  |  |  | 0.06 |  |  | 0.0662 |
| S130H | 0.0833 | 0.0696 |  | 0.0567 |  | 0.0538 | 0.0298 |  |  | 0.0618 | 0.0563 |  | 0.0674 | 0.0494 | 0.0736 | 0.0578 | 0.052 |
| V58N | 0.0399 |  | 0.0553 |  |  |  | 0.0519 |  | 0.0488 |  |  |  | 0.0546 |  |  |  |  |
| V58H | 0.0494 |  | 0.0452 |  |  | 0.0386 |  |  |  | 0.0449 |  |  |  |  | 0.055 |  |  |
| Q74M | 0.0597 |  | 0.0583 | 0.0634 | 0.0727 | 0.0619 | 0.0639 | 0.0788 | 0.0629 | 0.0565 |  | 0.0726 | 0.0613 | 0.0843 | 0.0576 |  | 0.0655 |

Source: the supplement of paper PMC12217912
